Experimental data reported in PubChem BioAssay AID1508623 (National Center for Advancing Translational Sciences (NCATS), 2021).
About 450 (0.94%) of roughly 48,000 compounds were called active. Another 19% or so got no clear call; they are omitted. Calls come from the whole dose curve; as a rule, active = well fitted inhibition curve with a large enough effect; inconclusive = small, poorly fitted or top-dose-only effect; inactive = no such curve, though single readings can be large or run the other way. The list shows a part of the results.

Assay: Primary qHTS for Identification of Small Molecule Inhibitors of Huntingtin Promoter Activity; note: nearly all actives have a fitted effect of over 50% in size
Conditions: HEK293 HTT promoter firefly luciferase reporter (activity 0% = vehicle and -100% = no light), 24 h; series mostly up to 57.5 µM; activity change, negative = inhibition: at the top concentration
In short: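 Quantitative HTS used concentration series of up to 57.5 uM final on HEK293 luciferase reporter cells, 24 h at 37 degrees C. Readout was Dual-Glo firefly luminescence.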

| SMILES | activity change, negative = inhibition |
| --- | --- |
| O=C(O)CCc1ccc(NCc2cccc(Oc3ccccc3)c2)cc1 | inactive: -7.89% |
| Cc1ccc(NC(=O)CN2C(=O)COc3ccc(S(=O)(=O)N4CCOCC4)cc32)cc1N(C)C | inactive: -4.15% |
| CC1=C(C(N)=O)C(c2cccc(Br)c2)n2nc(SCc3ccccc3Cl)nc2N1 (stereo not given) | inactive: -5.52% |
| Cc1cc(C)c2oc(-c3ccc(NC(=O)COc4ccccc4C)cc3)nc2c1 | inactive: 39.9% |
| Fc1ccc(CSc2nncn3c2cc2occc23)c(Cl)c1 | inactive: -6.7% |
| COc1cc(C2C(C(=O)Nc3ccc(Cl)cc3)=C(C)Nc3nc(SC)nn32)cc(OC)c1OC (stereo not given) | inactive: -7.85% |
| Cc1nn(CC(=O)NCCc2ccccc2)c(=O)c2nn(-c3ccccc3)c(C)c12 | inactive: -0.547% |
| COc1cc(CN(C(=O)Nc2cccc(Cl)c2)c2ccccn2)cc(OC)c1OC | inactive: -2.2% |
| COC(=O)c1nnn(CC(=O)Nc2c(C)cccc2C)c1N | inactive: -13.9% |
| Cc1cc2nc3c(=O)[nH]c(=O)nc-3n(C[C@H](O)[C@H](O)[C@H](O)CO)c2cc1C | inactive: 2.91% [at 25.2 µM] |
| Cc1ccc(C(=O)NCC(c2cccs2)S(=O)(=O)c2ccccc2)cc1C (stereo not given) | inactive: -18.7% |
| CC(C)Nc1nc2c(S(=O)(=O)c3cccc(Cl)c3)nnn2c2ccsc12 | inactive: 0.407% |
| CC(C)CCNC(=O)c1ccc2nc(CCc3ccccc3)oc2c1 | inactive: 29.5% |
| CC(C)c1ccc(S(=O)(=O)N2CCN(CC(=O)Nc3ccccc3C(F)(F)F)CC2)cc1 | inactive: -0.0923% |
| CCOC(=O)c1c(C)oc2nc(C)nc(NCCc3ccc(OC)c(OC)c3)c12 | inactive: 0.986% |
| CCCCC(CC)CNC(=O)CCCCn1c(=O)[nH]c2ccsc2c1=O (stereo not given) | inactive: -6.95% |
| COC(=O)c1sc(N2C(=O)c3oc4ccc(C)cc4c(=O)c3C2c2ccc(O)c(OC)c2)nc1C (stereo not given) | inactive: -8.11% |
| COc1ccc(CCNc2nc(SCc3ccccc3F)nc3ccccc23)cc1OC | inactive: -6.77% |
| COC(=O)c1ccc(C(=O)OC)c(NC(=O)c2c(-c3ccccc3)noc2C)c1 | inactive: -22.6% |
| Cc1csc2nc(COc3ccc(NC(=O)C(C)C)cc3)cc(=O)n12 | inactive: 31% |

| SMILES | activity change, negative = inhibition |
| --- | --- |
| CCOC(=O)Cc1c(C)nc2cc(-c3ccc(C(C)(C)C)cc3)nn2c1C | inactive: -8.81% |
| Cc1ccc(NC(=O)c2c3c(nc4ccccc24)C(=O)N(C2CCCCC2)C3)cc1F | inactive: -9.95% |
| C=CCc1ccccc1OCc1nc2ccc(C)cc2[nH]1 | inactive: -25% |
| Cc1ccccc1NC(=O)CC1NCCNC1=O (stereo not given) | inactive: -0.0566% |
| COc1ccc(-n2ncc(C(=O)N3CCN(C4CCCCC4)CC3)c2C2CCN(C(=O)OC(C)(C)C)CC2)cc1 | inactive: 2.05% |
| Cn1c(=O)n(CC(=O)O)c(=O)c2c1nc1n2CCCN1c1ccc(Cl)cc1 | inactive: -1.51% |
| CCOC(=O)c1c(NC(=O)CSc2nc(-c3ccc(OC)cc3)cc(C(F)(F)F)n2)sc(C)c1C | inactive: -6.86% |
| CCN(CC)S(=O)(=O)c1ccc2c(c1)c(=O)c(C(=O)NCCc1ccccc1)cn2C | inactive: -1.55% |
| COc1ccc(C2CC(=O)c3cnc4c(-c5ccc(F)cc5)c(C)nn4c3C2)cc1OC (stereo not given) | inactive: -1.45% |
| CCOc1ccc(NC(=O)CC2C(=O)N(c3ccccc3)C(=O)N2C2CCCC2)cc1 (stereo not given) | inactive: -16.8% |
| Cc1cccc(N2CCN(C(=O)c3cnn(-c4ccc(F)cc4F)c3C3CCN(C(=O)OC(C)(C)C)CC3)CC2)c1C | inactive: -18.3% |
| Cc1ccc(CNC(=O)Cn2nc(N3CCN(c4ccccc4)CC3)ccc2=O)cc1 | inactive: -23.1% |
| COc1ccc(-n2c(SCC(=O)NCc3ccco3)nc3c([nH]c4ccccc43)c2=O)cc1 | inactive: -16.9% |
| CCOc1ccccc1NC(=O)c1cc2cc3cc(C)ccc3nc2s1 | inactive: -8.63% |
| CCOC(=O)c1cc2c(=O)n3ccccc3nc2n(Cc2ccco2)c1=NC(=O)c1cccc(C)c1 | inactive: -21.1% |
| CCCNC(=O)CSc1c2c(nc3ccc(Cl)cc13)CCCC2 | inactive: -9.52% |
| CCCn1c2ccccc2c2cnn(CC(=O)N(CC)c3cc(C)ccc3C)c(=O)c21 | inactive: -27.4% |
| Cc1ccc(NC(=O)CSc2nc3ccccc3c(=O)n2CCC(=O)NC2CCCCC2)cc1C | inactive: -8.25% |
| Cc1cccc(N2CCN(C(=O)C3CCN(S(=O)(=O)c4c(C)noc4/C=C/c4ccccc4F)CC3)CC2C)c1 (stereo not given) | inactive: -19.7% |
| Cc1ccc2oc(=O)c3cnn(CC(=O)N4CCN(c5ccccc5F)CC4)c3c2c1 | inactive: 2.1% |

| SMILES | activity change, negative = inhibition |
| --- | --- |
| Cc1ccc(C2C=C(c3ccccc3)Nc3nc(NS(=O)(=O)c4ccc(C)cc4)nn32)cc1 (stereo not given) | inactive: -3.16% |
| Cc1cc(=O)n(Cc2ccccc2)c2c1c(C)nn2-c1ccccc1 | inactive: 8.89% |
| Cc1nc2c3ccccc3nc(NNC(=O)CCC(=O)N3CCN(c4cc(Cl)ccc4C)CC3)n2n1 | inactive: -11.5% |
| COc1cccc(NC(=O)c2sc3nc(C)c(C(=O)Nc4ccc(C)cc4C)c(-c4ccco4)c3c2N)c1 | inactive: -12.5% |
| COc1ccc(OCC(=O)Nc2cccc(C(=O)OCc3cc(=O)n4nc(C)sc4n3)c2)cc1 | inactive: -9.31% |
| CCc1cccc(NC(=O)CSc2nc3ccccc3nc2N2CCCCC2)c1 | inactive: -27.8% |
| CNC(=O)CCCN1C(=O)CCn2nc(-c3cn(C)c4ccccc34)cc21 | inactive: -11.8% |
| COCc1cc(C)nc2sc(C(=O)Nc3ccc(C(C)=O)cc3)c(N)c12 | inactive: 44.4% |
| CC(=Cc1ccccc1)C=C1SC(=S)N(CC(=O)O)C1=O | inactive: 11.2% |
| CCC(=O)N1CCc2cc(CNS(=O)(=O)c3ccc(C(C)C)cc3)ccc21 | inactive: -24.1% |
| COC(=O)c1ccc2c(=O)n(CCCCCC(=O)N3CCN(c4cc(C)ccc4C)CC3)c(=O)[nH]c2c1 | inactive: 17.8% |
| CCOC(=O)c1c(NC(=O)/C=C/c2ccc(OCC)cc2)sc(C(C)=O)c1C | inactive: -3.1% |
| COc1cc2nc(NCCc3ccccc3)n3nc(-c4cccnc4)nc3c2cc1OC | inactive: -2.13% |
| COc1cc(NC(=O)CCc2c(C)nc3c(-c4ccc(F)cc4)c(C)nn3c2C)cc(OC)c1OC | inactive: -2.04% |
| COc1ccc(CNC(=O)C(Cc2ccccc2)NS(=O)(=O)c2ccc3c(c2)CCN3C(C)=O)cc1 (stereo not given) | inactive: -29.5% |
| CCOc1ccc(NC(=O)CC2C(=O)N(c3ccc(OC)cc3)C(=O)N2C2CCCCC2)cc1 (stereo not given) | inactive: -5.37% |
| O=C(CSc1ncc2c(n1)-c1cc(Cl)ccc1N(Cc1ccccc1)S2(=O)=O)NCCc1ccccc1 | inactive: -11.1% |
| CCS(=O)(=O)N1CC(CC#N)(n2cc(-c3ncnc4[nH]ccc34)cn2)C1 | inactive: 33.6% |
| CS(=O)(=O)Nc1ccc(-c2nc3ccccc3s2)cc1 | inactive: 0% |
| CCOC(=O)COc1cc(C)c(Cl)cc1C(=O)c1ccn2nc(-c3ccc(OC)cc3)cc2n1 | inactive: -7.21% |
